Test results as given in PubChem BioAssay AID1865 (National Center for Advancing Translational Sciences (NCATS), 2009).
Screen size: about 280,000 compounds; about 540 (0.19%) were called active. The shares of active, inactive and inconclusive entries below differ from those in the screen. The call rests on the fitted dose curve; in most records, active means well fitted activation curve with a large enough effect; inconclusive means small, poorly fitted or top-dose-only effect; inactive means flat fitted curve, though single readings scatter. Potencies of inconclusive entries are doubtful fits and often do not repeat.

Test: Quantitative High-Throughput Screen for Regulators of Epigenetic Control; further: nearly all actives have a fitted effect of over 60% in size; on GFP activation: % of control where 0% means no effect
Settings: murine LDR cells, GFP reporter derepression, 30 h; GFP activation: at 53.9 µM (top of the series)
Method in brief: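 Derepression of a silenced CMV-GFP reporter in murine LDR cells is scored by enumerating GFP-positive cells with a laser-scanning microplate cytometer after 30 hours of treatment at 37 C.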
Potency means the concentration at half of the fitted maximal effect; tags describe the fitted curve by direction and shape.

| Structure (SMILES) | Potency | GFP activation |
| --- | --- | --- |
| O=C(Cn1nnc2sc(-c3ccccc3)cc2c1=O)Nc1cccc(C(F)(F)F)c1 | inconclusive: 25.1 µM [activator, single point] |  |
| Cc1nc2ccccc2c(=O)n1/N=C/c1ccc([N+](=O)[O-])o1 | inconclusive: 3.55 µM [activator, single point] |  |
| Cc1ccc(-n2nnnc2SCC(=O)c2cc(C)n(-c3cc(C)on3)c2C)c(C)c1 | inconclusive: 5.62 µM [activator, single point] |  |
| COc1ccc(NC(=O)c2cc(-c3ccccc3)oc2C)cc1 | inconclusive: 35.5 µM [activator, single point] |  |
| Cc1noc(Cn2c(=O)c3ccccc3n(CC(=O)Nc3ccc(F)cc3F)c2=O)n1 |  | inactive: 0.672% |
| CC(/C=N/n1c(COc2ccccc2)n[nH]c1=S)=C\c1ccco1 |  | inactive: 0% |
| CN(C)S(=O)(=O)c1ccc(Cl)c(NC(=O)COC(=O)[C@@H]2CCCN2C(=O)c2cccs2)c1 | inconclusive: 4.47 µM [activator, single point] |  |
| CCCCN(C)C1=CC2=CC(=C(C#N)C#N)CCC2CC1 (stereo not given) | inconclusive: 0.112 µM [activator, partial curve, poor fit] |  |
| O=C(/C=C/c1ccccc1)CC(O)(c1ccccc1)C(F)(F)C(F)F (stereo not given) | inconclusive: 35.5 µM [activator, single point] |  |
| COC(=O)CC1C(=O)NCCN1C(=O)OC(C)(C)C (stereo not given) | inconclusive: 4.47 µM [activator, single point] |  |
| COc1ccc(Nc2nc3ccc(Cl)cc3n3nnnc23)cc1OC | inconclusive: 35.5 µM [activator, single point] |  |
| COC(=O)C1=C(C)N(Cc2ccc(OC)cc2)C(=O)/C1=C\c1ccco1 | inconclusive: 20 µM [activator, single point] |  |
| COc1ccc(-n2nc(C#N)c(Cl)cc2=O)cc1 | inconclusive: 5.62 µM [activator, single point] |  |
| O=C(Nc1cc(-c2nc3ccccc3o2)ccc1Cl)c1ccc(Br)o1 | inconclusive: 25.1 µM [activator, single point] |  |
| CCCCCn1c(=O)[nH]c2cc(C(=O)N3CCN(CC)CC3)ccc2c1=O | inconclusive: 35.5 µM [activator, single point] |  |
| CCOc1ccc(CC2NCCc3cc(OCC)c(OCC)cc32)cc1OCC (stereo not given) | inconclusive: 25.1 µM [activator, single point] |  |
| CCN(CC)c1ccc(/C=N/Nc2nc3ccccc3[nH]2)cc1 | inconclusive: 7.08 µM [activator, partial curve] |  |
| CCOc1ccccc1NC(=O)Nc1cc(C(=O)NCc2ccc(C)cc2)ccc1N1CCCC1 | inconclusive: 3.16 µM [activator, single point] |  |
| O=C(NCc1ccccc1)N[C@@H](Cc1ccccc1)C(=O)O | inconclusive: 35.5 µM [activator, single point] |  |
| CC1=CC2=C(OC1N(C)C)c1cccc3cccc(c13)C2=O (stereo not given) | inconclusive: 15.8 µM [activator, single point] |  |
| O=C(CSc1nc2ccccc2s1)Nc1cc(S(=O)(=O)N2CCOCC2)ccc1Cl | inconclusive: 31.6 µM [activator, single point] |  |
| COc1ccc(-n2cc(-c3ccc4c(c3)OCO4)n(CC(=O)Nc3cc(Cl)ccc3C)c2=O)cc1 | inconclusive: 35.5 µM [activator, single point] |  |

| Structure (SMILES) | Potency | GFP activation |
| --- | --- | --- |
| COc1ccc(NS(=O)(=O)c2ccc3oc(SC4CCOC4=O)nc3c2)cc1 (stereo not given) | inconclusive: 31.6 µM [activator, single point] |  |
| Cc1oc(-c2ccc(C(=O)NCc3ccc(Cl)cc3)cc2)nc1CS(=O)(=O)c1ccccc1 | inconclusive: 15.8 µM [activator, single point] |  |
| COc1ccc(Cn2ccc3nc(C)c(C(=O)Nc4cc(C)cc(C)c4)cc3c2=O)cc1 | inconclusive: 35.5 µM [activator, single point] |  |
| O=C(O)CCC(=O)NCc1ccc(C(=O)O)cc1 | inconclusive: 1.78 µM [activator, full curve, poor fit] |  |
| Cc1cc(C)c2c(C)c(C(=O)NCc3ccncc3)oc2c1 |  | inactive: -0.833% |
| CCOc1ccc(NC(=O)Cn2c(=O)n(-c3ccccc3)c(=O)c3ccc(C(=O)NCc4ccc5c(c4)OCO5)cc32)cc1 | inconclusive: 35.5 µM [activator, single point] |  |
| COc1cc(/C=C2\CC/C(=C\c3cc(OC)c(O)c(OC)c3)C2=O)cc(OC)c1O | inconclusive: 35.5 µM [activator, single point] |  |
| COc1cc(/C=N/NC(=O)C2C3CCCCC32C)cc(Br)c1O (stereo not given) |  | inactive: -2.07% |
| CC(=O)Nc1ccc(NC(=O)C(C)OC(=O)c2ccccc2C(=O)c2ccc(Cl)c([N+](=O)[O-])c2)cc1 (stereo not given) | inconclusive: 12.6 µM [activator, single point] |  |
| CCN(CC)C(=O)CSC1=C(C#N)C(c2ccco2)C(C(=O)OCCOC)=C(C)N1 (stereo not given) | inconclusive: 35.5 µM [activator, single point] |  |
| CC(=O)N1CCc2nc3sc(C(=O)c4ccc(F)cc4)c(N)c3c(C(F)(F)F)c2C1 | inconclusive: 31.6 µM [activator, single point] |  |
| CCCCCCCCCCCCC/C=C/[C@@H](O)C(CO)NC(C)=O (stereo not given in full) | inconclusive: 15.8 µM [activator, single point] |  |
| O=C(CSc1ccc(F)cc1)N1CCC(c2nc3ccccc3s2)CC1 |  | inactive: 2.76% |
| O=c1oc2ccc(Cl)cc2cc1-c1nnc(Nc2cccc(C(F)(F)F)c2)s1 | inconclusive: 35.5 µM [activator, single point] |  |
| O=C(NCCC1=CCCCC1)c1ccc2c(c1)N(Cc1ccccc1F)C(=O)c1ccccc1S2=O (stereo not given) |  | inactive: 0.833% |
| COc1cc2cc(CNc3ccccc3)c(=O)n(CC(=O)Nc3ccccc3)c2cc1OC |  | inactive: -0.0114% |
| CCCCN(C(=O)Cn1ncc(Cl)c(Cl)c1=O)c1c(N)n(CC(C)C)c(=O)[nH]c1=O | inconclusive: 35.5 µM [activator, single point] |  |
| Cc1ccccc1NC(=O)c1cn2c(nc3ccccc32)c(C#N)c1C | inconclusive: 35.5 µM [activator, single point] |  |
| O=C(Nc1nnc(-c2ccco2)o1)c1ccc2ccccc2c1 | inconclusive: 35.5 µM [activator, single point] |  |
| CC(C)c1ccc(N2C(=O)CC(Sc3ncn[nH]3)C2=O)cc1 (stereo not given) |  | inactive: 2.59% |
| O=Cc1ccc(O)c2ncccc12 | inconclusive: 8.91 µM [activator, partial curve] |  |
| COc1ccc(C)cc1NC(=O)C1CCN(S(=O)(=O)c2c(C)noc2/C=C/c2ccco2)CC1 | inconclusive: 12.6 µM [activator, partial curve] |  |

| Structure (SMILES) | Potency | GFP activation |
| --- | --- | --- |
| O=C(CSCc1cnn(-c2ccccc2)c1-n1cccc1)NCc1ccc(Cl)cc1 | inconclusive: 35.5 µM [activator, single point] |  |
| CCOC(=O)c1c(-c2ccc(C)o2)csc1NC(=O)CSc1nncs1 | inconclusive: 6.31 µM [activator, single point] |  |
| COc1ccc(C2C(C#N)=C(N)N3C(=C2C#N)Sc2ccccc23)cc1 (stereo not given) | inconclusive: 22.4 µM [activator, single point] |  |
| O=C1c2ccsc2SCCN1Cc1c(Cl)cccc1Cl |  | inactive: -3.96% |
| CCC1(C)CC2(CCCN(CCC(=O)c3ccccc3)C2)CCO1 (stereo not given) | inconclusive: 25.1 µM [activator, single point] |  |
| COc1ccc2nc(SCC(=O)C(C)(C)C)[nH]c2c1 |  | inactive: 0% |
| COc1ccccc1NC(=O)c1sc2nc(C)c(C(=O)Nc3ccc(C)cc3C)c(-c3ccco3)c2c1N | active: 8.91 µM |  |
| Oc1[nH]c2ccccc2c1N=Nc1ccccc1 | inconclusive: 14.1 µM [activator, single point] |  |
| C=C(C)COc1ccc(-c2nc(N)nc(C)c2-c2ccc(OC)cc2)c(O)c1 | inconclusive: 31.6 µM [activator, single point] |  |
| CCCCCc1c(C)c(C#N)c2nc3ccccc3n2c1-n1ccnc1C | inconclusive: 14.1 µM [activator, single point] |  |
| O=C(CC1Sc2ccccc2NC1=O)OCC(=O)N1CCc2ccccc21 (stereo not given) | inconclusive: 11.2 µM [activator, single point] |  |
| Cc1ccc(NC(=O)C2CCCN(S(=O)(=O)c3ccc4c(c3)oc(=O)n4C)C2)cc1Cl (stereo not given) | inconclusive: 35.5 µM [activator, single point] |  |
| COc1ccc(-c2cc(C(=O)NCCc3ccccc3)c3c(-c4ccccc4)[nH]nc3n2)cc1OC |  | inactive: -0.885% |
| CC12C=CC(=O)C=C1CCC1C2=CCC2(C)C1CC[C@@H]2C(=O)CN1CCN(c2cc(N3CCCC3)nc(N3CCCC3)n2)CC1 (stereo not given in full) |  | inactive: 0% |
| CN1CCc2c(sc(NC(=O)CSc3ccccc3)c2-c2nc3ccccc3s2)C1 | inconclusive: 0.501 µM [activator, full curve, poor fit] |  |
| CCCC(=O)Nc1ccc(C=C(C(C)=O)C(C)=O)cc1 | inconclusive: 35.5 µM [activator, single point] |  |
| Cc1cc(=O)n2c3c(sc2n1)C(=O)N(Cc1ccccc1)C3=O | inconclusive: 35.5 µM [activator, single point] |  |
| O=C(Cn1nc(C(F)(F)F)c2c1CCCC2)Nc1ccc(Br)cc1 |  | inactive: 2.67% |
| Clc1ccc(-c2nc(-c3ccccn3)no2)cc1Cl |  | inactive: 0% |
| CC1=C(/C=C/C(=C/C=C/C(C)=C/C(=O)O)c2ccc(C)cc2)C(C)(C)CCC1 |  | inactive: -2.12% |
| Cc1ccc(N=Cc2sc(O)c3ccccc23)c(C)c1 | inconclusive: 35.5 µM [activator, single point] |  |
